# A collection of fitness landscapes (doi:10.1016/j.celrep.2020.107928)
# Whole data set: some 81,000 sequences, median “one-hybrid fitness for binding parS DNA” near -0.17, cut for the highest 2% near 0.51. This is one part of the list.
# B1: Caulobacter ParB omega fusion; a variant is named by its letters at X, in order, B8GW30 (parent)
# chain: MESVVVGEPGMSEGRRGLGRGLSALLGEVDAAPAQAPGEQLGGSREAPIEILQRNPDQPRRTFREEDLEDLSNSIREKGVLQPILVRPSPDTAGEYQIVAGERAWRAAQRAGLKTVPIMVRELDDLAVLEIGIIENVQRADLNVLEEALSYKVLMEKFERTQENIAQTIGKSXSHVANXMRLLXLPDEVQSYLVSGELTAXHARAIAAAADPVALAKQIIEGGLSVRETEALARKAPNLSAGKSKGGRPPRVKDTDTQALESDLSSVLGLDVSIDHRGSTGTLTITYATLEQLDDLCNRLTRGI
# Variants of: B1
# Assay: one-hybrid fitness for binding parS DNA (scaled: cognate 1, non-cognate 0); higher = stronger binding
# Details: with parS DNA site
# Outline: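 In E. coli USO, a HIS3 reporter with its site placed 19 bp from the promoter was used to select Caulobacter ParB variants randomised at four specificity codons. Growth lasted 48 hours at 37°C on histidine-free M9 containing 0.1 mM IPTG and 5 mM 3-AT. Fitness was taken as the log change in variant-to-wild-type read ratio from Illumina sequencing of pre- and post-selection plasmids, rescaled between the non-cognate and cognate sites.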
row,Variant,one-hybrid fitness for binding parS DNA
1,PDND,0.211
2,WTYS,≤ 0.2
3,CHVS,≤ 0.2
4,YPMT,≤ 0.2
5,ACKS,≤ 0.2
6,GLSC,≤ 0.2
7,REGV,≤ 0.2
8,QSYI,≤ 0.2
9,FQAS,≤ 0.2
10,PYEY,≤ 0.2
11,LAHY,≤ 0.2
12,CWRN,≤ 0.2
13,HRLG,0.266
14,TGGD,≤ 0.2
15,GNTL,≤ 0.2
16,GTDM,≤ 0.2
17,EWLW,≤ 0.2
18,QALI,≤ 0.2
19,NYFS,≤ 0.2
20,AQTG,≤ 0.2
21,TRMC,≤ 0.2
22,LTDM,≤ 0.2
23,GVVR,≤ 0.2
24,SDDC,≤ 0.2

row,Variant,one-hybrid fitness for binding parS DNA
1,SIAQ,≤ 0.2
2,KHRD,≤ 0.2
3,KRFL,≤ 0.2
4,CYPL,≤ 0.2
5,HLGW,≤ 0.2
6,PTIR,≤ 0.2
7,SDFG,≤ 0.2
8,TPMN,≤ 0.2
9,AHSM,≤ 0.2
10,YHIT,≤ 0.2
11,NCRY,≤ 0.2
12,NNHR,≤ 0.2
13,AYST,≤ 0.2
14,HSQG,≤ 0.2
15,LGVD,≤ 0.2
16,PRLA,≤ 0.2
17,WERR,≤ 0.2
18,ANLL,≤ 0.2
19,QFLM,≤ 0.2
20,HRGY,≤ 0.2
21,FSQS,≤ 0.2
22,QPVY,≤ 0.2
23,GMSI,≤ 0.2
24,QYDM,≤ 0.2

row,Variant,one-hybrid fitness for binding parS DNA
1,QSES,≤ 0.2
2,IVPE,≤ 0.2
3,IHIC,≤ 0.2
4,WHSS,≤ 0.2
5,CTQI,≤ 0.2
6,KALI,≤ 0.2
7,SRMS,≤ 0.2
8,SNVC,≤ 0.2
9,WPRG,≤ 0.2
10,GTYT,≤ 0.2
11,APAD,≤ 0.2
12,DTAM,≤ 0.2
13,IIST,≤ 0.2
14,TEQE,≤ 0.2
15,AKKN,≤ 0.2
16,YKDR,≤ 0.2
17,ANSS,≤ 0.2
18,LPPD,≤ 0.2
19,VLWG,≤ 0.2
20,LIPG,≤ 0.2
21,VICS,≤ 0.2
22,TIMA,≤ 0.2
23,IDNR,≤ 0.2
24,RLLP,≤ 0.2

row,Variant,one-hybrid fitness for binding parS DNA
1,HLAC,≤ 0.2
2,GWIY,≤ 0.2
3,KIDM,≤ 0.2
4,EATL,≤ 0.2
5,TTTA,≤ 0.2
6,FNAR,≤ 0.2
7,NVYT,≤ 0.2
8,RYWW,≤ 0.2
9,MIIL,≤ 0.2
10,SDGC,≤ 0.2
11,QFDT,≤ 0.2
12,RVGI,≤ 0.2
13,IMMD,≤ 0.2
14,RMHN,0.482
15,RTKQ,≤ 0.2
16,VQAG,≤ 0.2
17,YIIR,≤ 0.2
18,QQRI,≤ 0.2
19,VMFK,≤ 0.2
20,TYQN,≤ 0.2
21,GLET,≤ 0.2
22,QTDP,≤ 0.2
23,PRSF,≤ 0.2
24,SSER,≤ 0.2

row,Variant,one-hybrid fitness for binding parS DNA
1,MHVG,≤ 0.2
2,LHGF,≤ 0.2
3,PDSS,≤ 0.2
4,WSPE,≤ 0.2
5,HPMT,≤ 0.2
6,RPEL,≤ 0.2
7,LAVG,≤ 0.2
8,VTTA,≤ 0.2
9,LVWE,≤ 0.2
10,FSFL,0.297
11,VIPA,≤ 0.2
12,KNAP,≤ 0.2
13,YQKS,≤ 0.2
14,GSYF,≤ 0.2
15,PKAF,≤ 0.2
16,YPPA,≤ 0.2
17,IDRT,≤ 0.2
18,ASEH,≤ 0.2
19,QNRS,≤ 0.2
20,GYTF,≤ 0.2
21,DKAC,≤ 0.2
22,LMWC,≤ 0.2
23,TTSD,≤ 0.2
24,RNHR,≤ 0.2

row,Variant,one-hybrid fitness for binding parS DNA
1,PYPL,≤ 0.2
2,HNDV,≤ 0.2
3,PLCP,≤ 0.2
4,FVTR,≤ 0.2
5,NGQR,≤ 0.2
6,RGIT,0.278
7,KAIY,≤ 0.2
8,KVTR,≤ 0.2
9,QCGL,≤ 0.2
10,NFTP,≤ 0.2
11,TRNT,≤ 0.2
12,NGPG,≤ 0.2
13,DCDA,≤ 0.2
14,MMRV,≤ 0.2
15,QEHG,≤ 0.2
16,QSPK,≤ 0.2
17,ACPL,≤ 0.2
18,WWKC,≤ 0.2
19,PLQN,≤ 0.2
20,DPDA,≤ 0.2
21,MRAL,≤ 0.2
22,SPII,≤ 0.2
23,SHCC,≤ 0.2
24,CMRR,≤ 0.2

row,Variant,one-hybrid fitness for binding parS DNA
1,AHFD,≤ 0.2
2,AVVW,≤ 0.2
3,MLRR,≤ 0.2
4,SYTK,≤ 0.2
5,KIRA,≤ 0.2
6,TWRV,≤ 0.2
7,VPLK,≤ 0.2
8,QFPW,≤ 0.2
9,LHKS,≤ 0.2
10,PDLL,≤ 0.2
11,WFEC,≤ 0.2
12,QDNW,≤ 0.2
13,WDAS,≤ 0.2
14,DRDS,≤ 0.2
15,QWNS,≤ 0.2
16,ELMM,≤ 0.2
17,IYNS,≤ 0.2
18,EKSF,≤ 0.2
19,QGSM,≤ 0.2
20,PAPI,≤ 0.2
21,QLGY,≤ 0.2
22,GFRS,≤ 0.2
23,TWMR,≤ 0.2
24,RRMT,0.6

row,Variant,one-hybrid fitness for binding parS DNA
1,SVLY,≤ 0.2
2,NKHC,≤ 0.2
3,VCDC,≤ 0.2
4,FYLT,≤ 0.2
5,GHAM,≤ 0.2
6,QESP,≤ 0.2
7,MCHW,≤ 0.2
8,WPAT,≤ 0.2
9,SADN,≤ 0.2
10,VPTT,≤ 0.2
11,NRGR,≤ 0.2
12,DMLG,≤ 0.2
13,YLAE,≤ 0.2
14,VFYW,≤ 0.2
15,VVKG,≤ 0.2
16,PEWR,≤ 0.2
17,KAET,≤ 0.2
18,WILL,≤ 0.2
19,QEPY,≤ 0.2
20,AIKS,≤ 0.2
21,PLQG,≤ 0.2
22,HHKR,≤ 0.2
23,CWMR,≤ 0.2
24,QICM,≤ 0.2

row,Variant,one-hybrid fitness for binding parS DNA
1,SRDR,≤ 0.2
2,PHGK,≤ 0.2
3,LFMC,≤ 0.2
4,QDRK,≤ 0.2
5,RGIC,0.422
6,EQSA,≤ 0.2
7,TRIT,≤ 0.2
8,VDYS,≤ 0.2
9,DHSL,≤ 0.2
10,TRNP,≤ 0.2
11,EDRS,≤ 0.2
12,NRFI,≤ 0.2
13,TANV,≤ 0.2
14,PRNA,≤ 0.2
15,PISF,≤ 0.2
16,EPPT,≤ 0.2
17,VKPC,≤ 0.2
18,HLRG,≤ 0.2
19,CFGK,≤ 0.2
20,GPDG,≤ 0.2
21,SPVC,≤ 0.2
22,ATFN,≤ 0.2
23,APTF,≤ 0.2
24,LRLD,≤ 0.2

row,Variant,one-hybrid fitness for binding parS DNA
1,WDMS,≤ 0.2
2,RYSF,≤ 0.2
3,QFTK,≤ 0.2
4,SDTW,≤ 0.2
5,PAAP,≤ 0.2
6,TRTC,≤ 0.2
7,VIPT,≤ 0.2
8,DLFS,≤ 0.2
9,FMNC,≤ 0.2
10,FRTY,≤ 0.2
11,WICG,≤ 0.2
12,IDPW,≤ 0.2
13,CLAT,≤ 0.2
14,YHMG,≤ 0.2
15,WGPL,≤ 0.2
16,KQPK,≤ 0.2
17,KQRH,≤ 0.2
18,SSTN,≤ 0.2
19,GRWS,≤ 0.2
20,CSVG,≤ 0.2
21,PEIL,≤ 0.2
22,KDFR,≤ 0.2
23,LGID,≤ 0.2
24,RSGG,0.998

row,Variant,one-hybrid fitness for binding parS DNA
1,VASL,≤ 0.2
2,ARNW,≤ 0.2
3,NCLE,≤ 0.2
4,DESK,≤ 0.2
5,MVTG,≤ 0.2
6,ITQC,≤ 0.2
7,SLWF,≤ 0.2
8,SNAS,≤ 0.2
9,DSHN,≤ 0.2
10,CRHY,≤ 0.2
11,SAPF,≤ 0.2
12,QKIH,≤ 0.2
13,IMDT,≤ 0.2
14,DMFC,≤ 0.2
15,DQHG,≤ 0.2
16,HDPS,≤ 0.2
17,ANTP,≤ 0.2
18,FHFR,≤ 0.2
19,KTQD,≤ 0.2
20,DVTL,≤ 0.2
21,QSHW,≤ 0.2
22,PFKM,≤ 0.2
23,WKPE,≤ 0.2
24,LYGR,≤ 0.2

row,Variant,one-hybrid fitness for binding parS DNA
1,VAPL,≤ 0.2
2,GHAT,≤ 0.2
3,ALSW,≤ 0.2
4,NASM,≤ 0.2
5,MYRS,≤ 0.2
6,KWWS,≤ 0.2
7,GSQW,≤ 0.2
8,QSLK,≤ 0.2
9,RNSM,0.238
10,CEVS,≤ 0.2
11,AWTN,≤ 0.2
12,MCAC,≤ 0.2
13,CTDN,≤ 0.2
14,HRSR,≤ 0.2
15,PPDE,≤ 0.2
16,ATIC,≤ 0.2
17,ITPY,≤ 0.2
18,AGEV,≤ 0.2
19,SIAF,≤ 0.2
20,EVQT,≤ 0.2
21,TKVC,≤ 0.2
22,HKFR,≤ 0.2
23,LNVV,≤ 0.2
24,GRKG,≤ 0.2

row,Variant,one-hybrid fitness for binding parS DNA
1,TLLW,≤ 0.2
2,WTQT,≤ 0.2
3,NASN,≤ 0.2
4,QSDA,≤ 0.2
5,VFQM,≤ 0.2
6,KNLL,≤ 0.2
7,HGMT,≤ 0.2
8,CQCG,≤ 0.2
9,SLNG,≤ 0.2
10,DQWE,≤ 0.2
11,SMDS,≤ 0.2
12,NTKV,≤ 0.2
13,LPLT,≤ 0.2
14,AGWW,≤ 0.2
15,ECVR,≤ 0.2
16,SADG,≤ 0.2
17,WWDI,≤ 0.2
18,KTQT,≤ 0.2
